# Assay results: PubChem BioAssay AID686971 (National Center for Advancing Translational Sciences (NCATS), 2013)
# Hit rate of the full screen: of about 360,000 compounds, about 7,500 (2.1%) were called active. The shares of active, inactive and inconclusive entries below differ from those in the screen. The call rests on the fitted dose curve; in most records, active means well fitted cell-killing curve with a large enough effect; inconclusive means small, poorly fitted or top-dose-only effect, or effect the other way, or another doubt; inactive means no such curve, though single readings can be large or run the other way. No potency is given beside an inconclusive call; the fits are too rough.
# Test: qHTS for induction of synthetic lethality in tumor cells producing 2HG: qHTS for the HT-1080-IDH1KD cell line;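 on activity, negative = toxicity: 0% = DMSO wells and -100% = cell-free medium wells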
# Conditions: HT-1080 IDH1 knockdown viability, ATP luminescence, 48 h; activity, negative = toxicity: at 46.1 µM (top of the series) unless noted
# Outline: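 Knockdown cells (IDH1KD HT-1080) received compounds 2 h after plating at 750 cells/well and were kept 48 h at 37 °C in 5% FBS RPMI. A CellTiter-Glo luminescence read gave % activity for curve fitting.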
# Potency means the concentration at half of the fitted maximal effect; tags describe the fitted curve by direction and shape.
Structure (SMILES),Potency,"activity, negative = toxicity"
COc1cc2c(cc1OC)/C(=C/c1ccc(Br)cc1)C(=O)OC2,"inconclusive [cytotoxic, single point]",
Cc1cc(Br)c2c(c1)[C@](O)(c1cn(C)c3ccccc13)C(=O)N2C,"inconclusive [cytotoxic, single point]",
NNc1nc2cccnc2n(CCNc2ncc(C(F)(F)F)cc2Cl)c1=O,"inconclusive [cytotoxic, single point]",
O=C(c1ccc(COc2c(F)c(F)cc(F)c2F)o1)N1CCN(c2ccc(Cl)cc2)CC1,,inconclusive: -1.1% [cytotoxic]
CC(=O)Nc1cc(-c2cccc(C(=O)NCCN(C)C)c2)cn2c(-c3ccc(F)c(Cl)c3)cnc12,active: 20.6 µM,
C[C@@H](NC(=O)c1[nH]cnc1C(=O)Nc1cccc(Cl)c1)c1ccccc1,"inconclusive [cytotoxic, single point]",
COc1ccc(Cc2c(-c3ccc(C)cc3)nc3cc(C)c(Br)c(C)n23)c(C)c1,,inactive: -17.6%
OC(COc1ccc(Cl)c2ccccc12)CN1CCN(c2ccccn2)CC1 (stereo not drawn),"inconclusive [cytotoxic, single point]",
CC#CC[N+](C)(C)CCCCCCCCCC,"inconclusive [cytotoxic, full curve, poor fit]",
Cc1ccccc1OCCCCCn1ccnc1,,inactive: -5.35%
Cc1nc2cc(C(=O)N3c4ccccc4CC3C)ccc2s1 (stereo not drawn),active: 13 µM,
CC(C)C[C@H](CO)Nc1nc(Nc2cccc(Cl)c2)c2ncn(C(C)C)c2n1,,inactive: -9.71%
O=c1cc(N2CCCCCC2)[nH]c(=O)n1-c1ccccc1Cl,,inactive: 4.74%
CCC1(C)Cc2c(sc3nnn(CC(=O)Nc4ccccc4C)c(=O)c23)CO1 (stereo not drawn),,inactive: -11%
Cn1nc(-c2ccc(Cl)cc2)cc1NC(=O)CCCC(=O)O,,inactive: 0.186%
O=C(c1ccccc1)N1CCN(c2ccc(NCc3ccc4c(c3)OCO4)cc2)CC1,,inconclusive: -19% [cytotoxic]
O=C(Nc1nnc(COc2ccccc2F)s1)Nc1ccccc1F,"inconclusive [cytotoxic, single point]",
COc1cc([N+](=O)[O-])cc(/C=N/NC(=O)c2cccnc2)c1O,,inactive: -1.54%
O=C(/C=C/c1ccc(F)cc1)N1CCCc2ccccc21,,inactive: -0.224%
O=C(Nc1ccc(F)cc1)Nc1ccc(N2CCCC2)c(S(=O)(=O)Nc2ccccc2Cl)c1,active: 23.1 µM,
O=[N+]([O-])c1ccc(N2CCNCC2)cc1Sc1nc2ccccc2[nH]1,"inconclusive [cytotoxic, single point]",
Cc1ccc(C(=O)/C=C/C(=O)c2ccc(C)cc2)cc1,active: 11.6 µM,
COc1ccccc1N(C)S(=O)(=O)c1ccc(C(=O)OCC(=O)c2c[nH]c3ccccc23)cc1,,inactive: -0.429%
COc1ccc(-c2ccc(-c3noc(-c4ccco4)n3)c(OC)n2)cc1,"inconclusive [cytotoxic, single point]",
Nc1nnc(CC(=O)N/N=C/c2cc([N+](=O)[O-])cc(Br)c2O)s1,,inactive: 2.32%

Structure (SMILES),Potency,"activity, negative = toxicity"
CCOC(=O)O[C@]1(C(=O)COC(=O)CC)CC[C@H]2[C@@H]3CCC4=CC(=O)C=C[C@]4(C)[C@H]3[C@@H](O)C[C@@]21C,,inactive: 15.2%
Cc1cccc(OCCCC(=O)Nc2nc3ccccc3[nH]2)c1,,inactive: -20.7%
Cc1cc(C)c2sc(N(CCCN(C)C)C(=O)c3ccc(Br)s3)nc2c1,"inconclusive [cytotoxic, single point]",
CCCCc1n[nH]c2c1/C(=N/O)CC(c1ccccc1)C2 (stereo not drawn),"inconclusive [cytotoxic, single point]",
O=C(Nc1ccc(S(=O)(=O)N2CCOCC2)cc1)c1ccc(Cl)s1,,inactive: -26.7%
Cc1cccc(N(CC(=O)NCc2ccccc2)C(=O)CCC(=O)Nc2nccs2)c1,"inconclusive [cytotoxic, partial curve]",
Cc1nc(NC(=O)c2ccccc2)sc1Cc1ccc2c(c1)OCO2,"inconclusive [cytotoxic, partial curve]",
Cn1ncc(N=Cc2ccc([N+](=O)[O-])cc2)c1C(=O)N1CCOCC1,,inactive: 1.3%
CCCCOc1ccc(NC2=NC3(CCCC3)N=C(N)N2)cc1,"inconclusive [cytotoxic, partial curve]",
Cc1cccc(C(O)(C(=O)NNc2ccc3ccccc3n2)c2cccc(C)c2)c1,"inconclusive [cytotoxic, partial curve]",
COc1ccc(-c2cc(C(F)(F)F)nc(S(=O)(=O)CCCC(=O)Nc3cccc(O)c3)n2)cc1OC,active: 11.6 µM,
COc1cc(CC(=O)Nc2nc(-c3ccc(F)c(F)c3)cs2)cc(OC)c1OC,"inconclusive [cytotoxic, partial curve]",
COc1cccc(-c2nn(Cc3ccccc3)cc2CO)c1,,inactive: -12.2%
CC1(C(=O)N/N=C/c2ccc([N+](=O)[O-])o2)CC1(Br)Br (stereo not drawn),"inconclusive [cytotoxic, partial curve]",
Cc1ccc(S(=O)(=O)n2cnc3ccccc32)cc1[N+](=O)[O-],,inactive: 4.49%
Cc1nn(Cc2ccc(F)cc2)c2sc(C(=O)Nc3ccc(N4CCOCC4)cc3N3CCOCC3)cc12,"inconclusive [cytotoxic, single point]",
Cc1cccc2sc(NNC(=O)c3ccc(S(=O)(=O)N4CC(C)CC(C)C4)cc3)nc12 (stereo not drawn),active: 16.4 µM,
NC(CCc1ccccc1)c1csc(NC(=O)Nc2cccc(Cl)c2)n1 (stereo not drawn),"inconclusive [cytotoxic, single point]",
COc1ccccc1CC(=O)N(Cc1ccccc1)c1ccc(C)cc1,"inconclusive [cytotoxic, single point]",
Cc1ccccc1NC(=O)Nc1nc(C(N)c2ccccc2)cs1 (stereo not drawn),"inconclusive [cytotoxic, single point]",
Cc1ccc(S(=O)(=O)CCC(=O)NCCc2ccccc2)cc1,,inactive: -4.61%
CCc1ccccc1-n1c(SCC(=O)Nc2ccc3c(c2)OCCO3)nc2[nH]ncc2c1=O,"inconclusive [cytotoxic, single point]",
COc1cc(OC)cc(C(=O)NCC(=O)OCC(=O)c2ccc3c(c2)-c2ccccc2C3)c1,,inactive: -0.572%
O=C(CCCOc1ccc(Cl)cc1Cl)N/N=C\C1CCCCC1,,inactive: -8.3%
CCOc1ccc(-c2cn3ccccc3n2)cc1,"inconclusive [cytotoxic, single point]",

Structure (SMILES),Potency,"activity, negative = toxicity"
Cc1onc(-c2ccccc2)c1C(=O)Nc1nncs1,,inactive: 12.1%
CC(=O)c1c(C)[nH]c(C(=O)Nc2ccc(Cl)cc2)c1C,,inactive: -26.6%
Cc1ccc(-n2c(SCC(=O)Nc3ccc4c(c3)OCO4)nnc2-c2ccoc2C)cc1,"inconclusive [cytotoxic, partial curve]",
CC(C)c1nnc(NC(=O)CCS(=O)(=O)c2ccccc2)s1,,inconclusive: -35.7% [cytotoxic]
CC(C)(C)c1ccccc1NC(=O)Nc1nc(C(N)Cc2ccc(F)cc2)cs1 (stereo not drawn),"inconclusive [cytotoxic, single point]",
Cc1nc(NC(=O)CSc2ccc(-c3nc4ccccc4[nH]3)cn2)sc1C,"inconclusive [cytotoxic, partial curve]",
CCC(=O)Nc1nnc(SCC(=O)Nc2ccc3c(c2)OCCO3)s1,"inconclusive [cytotoxic, partial curve]",
Cc1ccccc1-c1nsc(SCC(=O)Nc2ccc3c(c2)OCO3)n1,"inconclusive [cytotoxic, single point]",
COc1ccc(N=Cc2c(C)[nH][nH]c2=O)cc1,"inconclusive [cytotoxic, partial curve]",
O=C(CSc1ncnc2c1nnn2Cc1ccccc1F)NCC1CCCO1 (stereo not drawn),"inconclusive [cytotoxic, single point]",
C(=N\n1cnnc1)/c1cn(Cc2ccccc2)c2ccccc12,"inconclusive [cytotoxic, full curve]",
Cn1nnnc1Sc1ncnc2scc(-c3ccc(F)cc3)c12,active: 20.6 µM,
CC(=O)N1CCC(C(=O)Nc2ccc(S(=O)(=O)N3CCCCC3)cc2)CC1,,inactive: 2.31%
Nc1nc(-c2ccccc2)c(N=Nc2cccc3ccccc23)s1,active: 20.6 µM,
Cc1ccc(C(C)C)cc1OCC(=O)N/N=C/c1ccc2c(c1)OCCO2,"inconclusive [cytotoxic, single point]",
COc1cc(/C=C/C(=O)c2cccc([N+](=O)[O-])c2)cc(OC)c1OC,"inconclusive [cytotoxic, single point]",
CN(C)CC(C(=O)c1ccccc1)c1ccccc1 (stereo not drawn),active: 13 µM,
COc1cccc(O)c1CN1CCCC(C(=O)c2cccc(C(F)(F)F)c2)C1 (stereo not drawn),"inconclusive [cytotoxic, single point]",
C[C@@H]1CN([C@@H](C)CO)C(=O)c2cc(NC(=O)c3ccccc3)ccc2O[C@@H](C)CCCCO[C@@H]1CN(C)Cc1ccc(C(F)(F)F)cc1,,inconclusive: -30.2% [cytotoxic]
CCn1c(CSc2nc3ccccc3s2)nnc1SCC(=O)c1ccc(Cl)cc1,"inconclusive [cytotoxic, partial curve, poor fit]",
Cc1ccc(-n2nc(C)c(NC(=O)CCl)c2C)cc1,"inconclusive [cytotoxic, single point]",
COc1cc(C2c3c([nH]c(=O)[nH]c3=O)Nc3ccc4ccccc4c32)ccc1O (stereo not drawn),,inconclusive: -32.5% [cytotoxic]
CC1CC(C)(C)NC(=S)N1CCCC(=O)Nc1ccc(Br)cc1 (stereo not drawn),"inconclusive [cytotoxic, single point]",
